# According to PubChem BioAssay AID504845 (National Center for Advancing Translational Sciences (NCATS), 2011):
# Out of some 390,000 compounds screened, about 150 (0.038%) were called active. The inconclusive results got no clear call from the source; some entries with a clear call stand among them for comparison. The call rests on the fitted dose curve; in most records, active means well fitted inhibition curve with a large enough effect; inconclusive means small, poorly fitted or top-dose-only effect; inactive means no such curve, though single readings can be large or run the other way. A potency beside an inconclusive call is a rough fit, not a confirmed value.
# Target: Regulator of G-protein signaling 4 (Homo sapiens) (UniProt P49798)
# Chain of UniProt P49798 (P49798 whole entry, looked up): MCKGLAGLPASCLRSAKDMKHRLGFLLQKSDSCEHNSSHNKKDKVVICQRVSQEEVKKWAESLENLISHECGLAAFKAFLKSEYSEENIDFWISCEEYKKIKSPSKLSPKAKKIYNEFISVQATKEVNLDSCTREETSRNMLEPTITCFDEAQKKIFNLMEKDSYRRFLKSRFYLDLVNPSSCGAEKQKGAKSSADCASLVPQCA
# Experiment: Inhibitors of Regulator of G Protein Signaling (RGS) 4: qHTS; further: nearly all actives have a fitted effect of over 75% in size
# Conditions: Transcreener GDP fluorescence polarization, RGS4-accelerated GTP hydrolysis; series mostly up to 114 µM; activity change, negative = inhibition: at the top concentration
# Procedure, shortened: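 MLSMR compounds (23 nl, pin-transferred) preincubated 10 min at room temperature with a 500nM (2x) first reagent, then RGS4 at 900nM (2x) plus Transcreener GDP mix added; fluorescence polarization (620/688 nm) read before and after 90 min at 30 °C.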
# On the % scale 0 is the no-effect control and ±100 the full control effect; potency means the concentration at half of the fitted maximal effect; tags describe the fitted curve by direction and shape.
SMILES,Potency,"activity change, negative = inhibition"
Cc1ccc(C)c(N2CCN(C(=O)c3c(C)oc4nc(C)nc(N5CCOCC5)c34)CC2)c1,"inconclusive: 89.1 µM [inhibitor, single point]",–
O=C(O)c1ccc(Cl)c(NC(=S)NC(=O)c2cccc(COc3ccccc3)c2)c1,"inconclusive: 28.2 µM [inhibitor, full curve, poor fit]",–
COc1ccc(NC2CCCN(C(=O)COc3ccc(Cl)cc3C)C2)cc1OC (centres undefined),"inconclusive: 79.4 µM [inhibitor, partial curve, poor fit]",–
CCc1ccc(NC(=O)c2cnn3ccccc23)cc1,–,inactive: 0%
O=C(CCCN1CCC(NC(=O)c2ccccc2)CC1)c1ccc(Cl)cc1,–,inactive: -4.56%
CCN(CC)S(=O)(=O)c1cccc(-c2n[nH]c(=S)n2/N=C/c2ccc(OC)cc2)c1,"inconclusive: 28.2 µM [inhibitor, full curve, poor fit]",–
O=C(Nc1nc2cc(Cl)ccc2s1)C1CCCN(S(=O)(=O)c2cccc3cccnc23)C1 (centres undefined),–,inactive: 5.71%
COC(=O)c1c(N)n(-c2ccc(NC(C)=O)cc2)c2nc3ccccc3nc12,–,inactive: -33.4%
O=C1NC(c2ccccc2)N=C2Oc3ccccc3C=C12 (centres undefined),–,inactive: -3.78%
O=C(NCCN1CCOCC1)c1ccc2c(c1)N(Cc1ccccc1)CCS2,"inconclusive: 28.2 µM [inhibitor, full curve, poor fit]",–
CCc1ccc(OCCNC(=O)c2ccccc2SCc2ccccc2)cc1,"inconclusive: 89.1 µM [inhibitor, single point]",–
CC1(C)CC(=O)c2sc(NC(=O)c3ccco3)nc2C1,–,inactive: -5.47%
O=C(CNC(=O)c1ccccc1F)OCCCOC(=O)CNC(=O)c1ccccc1F,–,inactive: 47.3%
COc1ccc2nc(NC(=O)c3ccc(NC(=O)C4CCCO4)cc3)sc2c1 (centres undefined),–,inactive: -3.04%
CCc1ccc(O)c(N=Cc2ccccc2O)c1,–,inactive: -10.3%
COc1ccc(CNC(=O)c2c(O)c3cccc4c3n(c2=O)CCC4)cc1,–,inactive: -18.1%
Cc1ccc(/C=C/C(=O)N2CCN(c3ncccn3)CC2)o1,"inconclusive: 35.5 µM [inhibitor, full curve, poor fit]",–
COc1ccc2[nH]c3c(c2c1)CCN1C(=O)C(CC(=O)NCCC2=CCCCC2)C[C@H](C(=O)N2CCOCC2)[C@@]31CCC1CCCC1 (some centres undefined),–,inactive: -15.2%
COc1ccc(CCn2c(SCC(=O)Nc3cc(C)on3)nc3ccsc3c2=O)cc1OC,"inconclusive: 39.8 µM [inhibitor, partial curve, poor fit]",–
O=C(CN1CCN(c2ncc(C(F)(F)F)cc2Cl)CC1)N1CCN(c2ncc(C(F)(F)F)cc2Cl)CC1,–,inactive: 26.1%
COc1ccc(CNc2nc3nc(-c4ccccc4)cc(=O)n3[nH]2)cc1OC,"inconclusive: 89.1 µM [inhibitor, single point]",–
CCCCc1ccc(/C(C)=N/Nc2cc(N3CCOCC3)nc(C)n2)cc1,–,inactive: 1.29%
Cc1cc(=O)oc2cc(O)ccc12,–,inactive: -5.86%

SMILES,Potency,"activity change, negative = inhibition"
Cc1cccc(N(Cc2cc(=O)[nH]c3ccccc23)C(=O)CCl)c1,–,inactive: -28.4%
CC(=O)c1ccc(NC(=O)c2ccc(-n3cnnn3)cc2)cc1,"inconclusive: 39.8 µM [inhibitor, partial curve, poor fit]",–
COc1ccccc1CCNS(=O)(=O)c1cc2c3c(c1)CCN3C(=O)CC2,"inconclusive: 100 µM [inhibitor, single point]",–
Fc1ccc2nc(N3CCOCC3)sc2c1,–,inactive: 5.3%
COc1ccc(NC(=O)/C(C#N)=C\c2ccc(OCc3ccc(C(=O)O)cc3)c(OC)c2)cc1,"inconclusive: 50.1 µM [inhibitor, partial curve, poor fit]",–
Cn1c(=O)c2[nH]c(N=NNc3ccccc3F)nc2n(C)c1=O,"inconclusive: 35.5 µM [inhibitor, full curve, poor fit]",–
CCOc1ccc(NC(=O)c2nc(S(=O)(=O)Cc3ccccc3F)ncc2Cl)cc1,"inconclusive: 17.8 µM [inhibitor, full curve, poor fit]",–
CCCCCCC(C)OC(=O)Nc1cccc2ccccc12 (centres undefined),–,inactive: 5.15%
COc1cc2c(cc1OC)-c1cc(=Nc3c(C)cc(C)cc3C)n(C)c(=O)n1CC2,"inconclusive: 21.2 µM [inhibitor, single point]",–
Cn1nnnc1SCCCNCc1cc(Br)ccc1OCc1ccccc1,–,inactive: 15.1%
Cc1c(N=C2NC(=O)/C(=C/c3ccc(O)cc3)S2)c(=O)n(-c2ccccc2)n1C,"inconclusive: 50.1 µM [inhibitor, partial curve, poor fit]",–
CCOc1ccc(CCNC(=O)Nc2ccccc2C)cc1OCC,–,inactive: 4.14%
COC(=O)c1ccc(OCC2c3cc(OC)c(OC)cc3CCN2C(=O)c2ccc(OC)cc2)cc1 (centres undefined),–,inactive: 3.6%
CC(=O)N1CCN(C(=O)c2ccc(C)c(S(=O)(=O)N3CCCCC3)c2)CC1,"inconclusive: 89.1 µM [inhibitor, single point]",–
Cc1cc(C)n(-c2cccc(Cl)c2)c(=O)c1C#N,–,inactive: -28.3%
CN(C)S(=O)(=O)c1ccc(C(=O)NCC2CC2(Cl)Cl)cc1 (centres undefined),"inconclusive: 44.7 µM [inhibitor, partial curve, poor fit]",–
COc1ccc(-n2nnnc2-c2cnc3cc4c(cc3c2C)OCO4)cc1,–,inactive: -20.9%
O=c1c2ccccc2sn1-c1cc(S(=O)(=O)N2CCOCC2)ccc1N1CCCC1,"inconclusive: 17.8 µM [inhibitor, full curve, poor fit]",–
COC(=O)C12OCC34C(CC5C(C)=C(O)C(=O)CC5(C)C3C(O)C1O)OC(=O)C(OC(=O)C=C(C)C)C24 (centres undefined),"inconclusive: 100 µM [inhibitor, single point]",–
COc1ccc(-c2c(C#N)c(SCC(=O)Nc3ccc(C)c(C)c3)nc(C)c2C(=O)Nc2ccc(Cl)cc2)cc1,–,inactive: -16.3%
O=C(c1cc([N+](=O)[O-])ccc1N1CCOCC1)N1CCCCC1,–,inactive: 10.5%
CC(=O)NCCC1CCCCN1C(=O)c1cc(COc2cc(C)ccc2C)on1 (centres undefined),–,inactive: 2.89%
COc1ccc(C(=S)N2CCCCCC2)cc1,"inconclusive: 79.4 µM [inhibitor, partial curve, poor fit]",–

SMILES,Potency,"activity change, negative = inhibition"
C=CS(=O)c1sc(Cl)c(N2CCOCC2)c1[N+](=O)[O-] (centres undefined),"inconclusive: 10 µM [inhibitor, full curve, poor fit]",–
CCN(CC)C(=O)c1sc(NC(=O)c2ccoc2C)c(C(=O)OC)c1C,"inconclusive: 79.4 µM [inhibitor, partial curve, poor fit]",–
CCC(=O)NC(NC(=S)Nc1c(C)n(C)n(-c2ccccc2)c1=O)C(Cl)(Cl)Cl (centres undefined),"inconclusive: 89.1 µM [inhibitor, single point]",–
COC(=O)CC1=C(C(=O)OC)C(c2cccs2)C(C#N)=C(N)O1 (centres undefined),"inconclusive: 50.1 µM [inhibitor, partial curve, poor fit]",–
C=CCNc1nc(-c2sc(NC(C)=O)nc2C)cs1,"inconclusive: 79.4 µM [inhibitor, single point]",–
CCSc1nnc(N2C(=O)C(O)=C(C(=O)c3ccco3)C2c2cccc(OC)c2)s1 (centres undefined),"inconclusive: 79.4 µM [inhibitor, partial curve, poor fit]",–
COCC(C)n1c(C)cc(C(=O)COC(=O)CNC(=O)c2ccccc2)c1C (centres undefined),"inconclusive: 79.4 µM [inhibitor, partial curve, poor fit]",–
CC(SCc1ccccc1)C(=O)N/N=C/c1ccc2c(c1)OCO2 (centres undefined),"inconclusive: 89.1 µM [inhibitor, single point]",–
COc1ccc(-c2cc(OC(=O)c3ccccc3C)c3c(C)oc(C)c3c(=O)c2)cc1,"inconclusive: 15.8 µM [inhibitor, full curve, poor fit]",–
CCOc1ccc2nc(NC(=O)C3CCCN(S(=O)(=O)c4cccs4)C3)sc2c1 (centres undefined),"inconclusive: 89.1 µM [inhibitor, single point]",–
Cc1ccc(NC(=O)CN(C)c2ccc(S(=O)(=O)N3CCN(C)CC3)cn2)cc1,–,inactive: 6.65%
COc1cccc(/C=C/C(=O)N2CCN(c3n[nH]c(=O)[nH]c3=O)CC2)c1OC,"inconclusive: 79.4 µM [inhibitor, single point]",–
CC(=O)n1cc(C(C[N+](=O)[O-])SCCN)c2ccccc21 (centres undefined),"inconclusive: 79.4 µM [inhibitor, partial curve, poor fit]",–
CC1=C(C(=O)OC2CCCC2)C(c2ccc(C)o2)C2=C(CC(c3cccs3)CC2=O)N1 (centres undefined),"inconclusive: 100 µM [inhibitor, partial curve, poor fit]",–
O=C(N/C(=C\c1ccccc1)C(=O)N1CCCCCC1)c1ccccc1,"inconclusive: 79.4 µM [inhibitor, partial curve, poor fit]",–
CCNC(=O)N1CCN(CCCC(c2ccc(F)cc2)c2ccc(F)cc2)CC1,inactive,–
CCN(Cc1nc(-c2ccccc2)no1)C(=O)COc1cccc(OC)c1,–,inactive: 2.07%
Fc1ccc(C(OCCCc2cnc[nH]2)c2ccc(F)cc2)cc1,"inconclusive: 21.2 µM [inhibitor, single point]",–
CCOC(=O)c1sc(=NC(=O)c2ccc(OC(C)C)cc2)n(C)c1C,–,inactive: -9.97%
COc1ccc(O)c(/C=N/c2sc(C)c(C)c2C#N)c1,"inconclusive: 79.4 µM [inhibitor, partial curve, poor fit]",–
CCn1c(=O)c(=O)[nH]c2cc(C(=O)NC3CCCC3)ccc21,"inconclusive: 28.2 µM [inhibitor, full curve, poor fit]",–
CCOC(=O)/C(C#N)=C/Nc1ccsc1C(=O)OC,–,inactive: 21.7%
O=C(Cn1cccc(C(F)(F)F)c1=O)c1ccc(Cl)cc1,"inconclusive: 70.8 µM [inhibitor, single point]",–
